{"source": "PubChem BioAssay AID504332", "about": "(National Center for Advancing Translational Sciences (NCATS), 2011)", "note": "Among all 350,000 compounds or so, about 31,000 (8.9%) were called active. Inconclusive results, whose numbers are uncertain, are shown with a selection of clear calls. The call rests on the fitted dose curve; in most records, active means well fitted inhibition curve with a large enough effect; inconclusive means small, poorly fitted or top-dose-only effect; inactive means no such curve, though single readings can be large or run the other way. A potency beside an inconclusive call is a rough fit, not a confirmed value. On the % scale 0 is the no-effect control and ±100 the full control effect; potency means the concentration at half of the fitted maximal effect; tags describe the fitted curve by direction and shape.", "data": [{"target": "Histone-lysine N-methyltransferase EHMT2 (Homo sapiens) (UniProt Q96KQ7)", "sequence (Q96KQ7 whole entry, looked up)": "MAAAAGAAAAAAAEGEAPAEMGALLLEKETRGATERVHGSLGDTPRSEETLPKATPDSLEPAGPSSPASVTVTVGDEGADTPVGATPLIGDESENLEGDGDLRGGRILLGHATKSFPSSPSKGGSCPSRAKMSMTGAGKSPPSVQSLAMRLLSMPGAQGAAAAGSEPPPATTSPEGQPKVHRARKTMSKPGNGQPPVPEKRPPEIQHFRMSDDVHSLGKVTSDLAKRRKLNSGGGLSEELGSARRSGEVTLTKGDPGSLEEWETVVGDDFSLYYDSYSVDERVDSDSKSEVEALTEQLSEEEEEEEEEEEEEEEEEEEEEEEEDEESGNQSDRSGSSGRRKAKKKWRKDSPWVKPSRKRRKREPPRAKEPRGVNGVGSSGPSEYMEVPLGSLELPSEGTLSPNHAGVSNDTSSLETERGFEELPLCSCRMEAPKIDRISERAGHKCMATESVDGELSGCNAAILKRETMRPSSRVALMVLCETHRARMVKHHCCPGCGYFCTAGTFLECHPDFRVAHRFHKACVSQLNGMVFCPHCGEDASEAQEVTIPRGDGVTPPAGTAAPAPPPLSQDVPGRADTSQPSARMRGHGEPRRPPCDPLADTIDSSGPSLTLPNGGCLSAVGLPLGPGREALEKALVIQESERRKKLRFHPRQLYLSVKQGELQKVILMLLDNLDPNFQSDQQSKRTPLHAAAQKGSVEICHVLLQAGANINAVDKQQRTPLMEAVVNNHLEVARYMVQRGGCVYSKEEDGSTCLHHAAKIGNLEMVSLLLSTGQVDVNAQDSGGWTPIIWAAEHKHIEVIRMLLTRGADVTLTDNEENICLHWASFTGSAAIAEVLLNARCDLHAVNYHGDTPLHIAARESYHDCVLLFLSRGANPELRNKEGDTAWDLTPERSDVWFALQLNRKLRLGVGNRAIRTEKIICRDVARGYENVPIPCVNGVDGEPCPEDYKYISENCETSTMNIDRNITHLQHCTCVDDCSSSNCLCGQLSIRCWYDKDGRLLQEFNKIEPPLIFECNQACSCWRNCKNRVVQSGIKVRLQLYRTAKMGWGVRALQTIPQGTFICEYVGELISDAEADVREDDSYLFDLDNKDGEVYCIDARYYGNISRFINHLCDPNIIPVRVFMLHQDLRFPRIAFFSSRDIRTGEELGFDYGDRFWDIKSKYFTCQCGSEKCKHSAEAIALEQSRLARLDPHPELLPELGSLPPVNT", "assay": "qHTS Assay for Inhibitors of Histone Lysine Methyltransferase G9a; further: nearly all actives have a fitted effect of over 75% in size", "conditions": "G9a H3K9 monomethylation, AlphaScreen, 2 h; activity, negative = inhibition: at 59 µM (top of the series) unless noted", "summary_of_the_method": "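Chemiluminescent proximity detection of H3K9 monomethylation, read after 10 min bead incubation in the dark. Reaction: 20 nM G9a, 500 nM biotin-H3K9 peptide, 20 uM SAM cofactor, 2 h, room temperature, following 15 min enzyme-compound preincubation.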", "values": [{"smiles": "CCOC(=O)c1nnc2ccnn2c1N", "activity, negative = inhibition": "inconclusive: -53.8% [inhibitor]"}, {"smiles": "C/C(=N\\Nc1ccc([N+](=O)[O-])cc1[N+](=O)[O-])C(C)(C)C(C(=O)O)C(=O)O", "Potency": "inconclusive: 35.5 µM [inhibitor, single point]"}, {"smiles": "O=C(Nc1ccccc1N1CCN(c2ccc(F)cc2)CC1)C1CCCCC1", "Potency": "inconclusive: 50.1 µM [inhibitor, partial curve]"}, {"smiles": "CCn1c(C)nc2cc(C(=O)NNC(=S)Nc3ccccc3Cl)ccc21", "Potency": "inconclusive: 12.6 µM [inhibitor, single point]"}, {"smiles": "COc1ccc(C2=CC(c3ccc(Cl)cc3)n3cnnc3N2)cc1OC", "note": "(stereo not given)", "Potency": "inconclusive: 22.4 µM [inhibitor, partial curve, poor fit]"}, {"smiles": "CC(=O)OC1CCC2(C)C3=C(CCC2C1(C)C)[C@@]1(C)CCC(C(C)CCC=C(C)C)[C@@]1(C)CC3", "note": "(stereo not given in full)", "activity, negative = inhibition": "inactive: -6.41% [at 2.33 µM]"}, {"smiles": "N#Cc1cc(-c2ccccc2)nnc1Sc1ccc(F)cc1", "Potency": "inconclusive: 89.1 µM [inhibitor, single point]"}, {"smiles": "COc1ccc(C2=Nn3c(nnc3-c3cccnc3)SC2)cc1", "Potency": "inconclusive: 22.4 µM [inhibitor, partial curve, poor fit]"}, {"smiles": "CC(C)=CCC[C@](C)(O[C@@H]1O[C@H](CO)[C@@H](O)[C@H](O)[C@H]1O)[C@H]1CC[C@]2(C)[C@@H]1[C@H](O)C[C@@H]1[C@@]3(C)CC[C@H](O[C@@H]4O[C@H](CO)[C@@H](O)[C@H](O)[C@H]4O[C@@H]4O[C@H](CO)[C@@H](O)[C@H](O)[C@H]4O)C(C)(C)[C@@H]3[C@@H](O)C[C@]12C", "Potency": "inactive"}, {"smiles": "COc1ccc(C2C(C(=O)NCc3cccnc3)c3ccccc3C(=O)N2C)cc1OC", "note": "(stereo not given)", "Potency": "inconclusive: 112 µM [inhibitor, partial curve, poor fit]"}, {"smiles": "CCC(=O)Nc1ccc(N2CCC(C)CC2)cc1", "Potency": "active: 8.91 µM"}, {"smiles": "COc1ccc(/C=C(/C#N)C(=O)Nc2cccc(C)c2C)cc1C(=O)O", "activity, negative = inhibition": "inactive: -3.18% [at 12.7 µM]"}, {"smiles": "O=C(c1ccc(OCCCc2cnc[nH]2)cc1)C1CC1", "Potency": "inactive"}, {"smiles": "COc1cc(OC)c(CNC2CCCCCC2)cc1Br", "Potency": "active: 35.5 µM"}, {"smiles": "COc1ccc(CCNC(=O)CSc2ccc(NC(C)=O)cc2)cc1OC", "Potency": "inactive"}, {"smiles": "COc1ccccc1-c1cc(NC(=O)COc2ccc(C)c(C)c2)n(-c2ccccc2)n1", "Potency": "inactive"}, {"smiles": "O=C(Cn1c(NCCCO)nc2ccccc21)c1cccc(Br)c1", "Potency": "inconclusive: 50.1 µM [inhibitor, partial curve]"}, {"smiles": "Cn1c(SCC(=O)Nc2ccc3cn[nH]c3c2)nnc1-c1cnccn1", "Potency": "inconclusive: 14.1 µM [inhibitor, single point]"}, {"smiles": "Cc1ccc(Cl)cc1-n1ncc2c(N3CCC(C)CC3)ncnc21", "Potency": "inactive"}, {"smiles": "O=C(NCc1ccccc1)C1CCN(S(=O)(=O)c2ccc3[nH]c(=O)ccc3c2)CC1", "Potency": "inactive"}, {"smiles": "NC(=S)NNc1cccc2cccnc12", "Potency": "active: 17.8 µM"}, {"smiles": "Cc1ccc(Nc2nc(NCCO)c3ccccc3n2)cc1C", "Potency": "active: 79.4 µM"}, {"smiles": "CC(C)OCc1cc(CN2CCN(c3ccccc3)CC2)c(O)c2ncccc12", "Potency": "inactive"}, {"smiles": "CN(CC(=O)Nc1ccc(OC(F)(F)F)cc1)C(=O)/C=C/c1cc2c(cc1[N+](=O)[O-])OCO2", "activity, negative = inhibition": "inactive: -13.6% [at 12.7 µM]"}, {"smiles": "Cc1[nH]n(-c2ccccc2)c(=O)c1C(C[N+](=O)[O-])c1ccccc1Cl", "note": "(stereo not given)", "activity, negative = inhibition": "inconclusive: -80.2% [inhibitor]"}, {"smiles": "CCn1c(C)cc(/C=C2/SC(=S)NC2=O)c1C", "Potency": "inconclusive: 31.6 µM [inhibitor, single point]"}, {"smiles": "O=C(Cn1ccc2ccccc2c1=O)NCC(=O)N1CCN(c2ccccc2F)CC1", "Potency": "inactive"}, {"smiles": "CC(=O)Oc1ccc(-c2nc3cc(Cl)ccc3c(=O)o2)cc1", "Potency": "inconclusive: 79.4 µM [inhibitor, partial curve, poor fit]"}, {"smiles": "Cc1cc(C)n2nc(SCCC(=O)NCCc3ccccc3)nc2n1", "Potency": "inconclusive: 89.1 µM [inhibitor, single point]"}, {"smiles": "Cc1nn(C)c(-c2n[nH]c(=S)n2Cc2ccco2)c1Cl", "Potency": "active: 6.31 µM"}, {"smiles": "O=C(Cc1csc(NC(=O)Nc2ccc(Cl)cc2)n1)NC1CCCC1", "Potency": "inconclusive: 10 µM [inhibitor, partial curve, poor fit]"}, {"smiles": "CCOC(=O)C1=C(C)OC(N)=C(C#N)C1c1ccoc1", "note": "(stereo not given)", "activity, negative = inhibition": "inconclusive: -94.9% [inhibitor]"}, {"smiles": "Cc1ccc(N2C(=O)CC(Sc3ccccc3C(=O)O)C2=O)cc1C", "note": "(stereo not given)", "Potency": "active: 1.58 µM"}, {"smiles": "O=C(NCC1CCCN1S(=O)(=O)c1cccs1)c1c(F)cccc1F", "note": "(stereo not given)", "Potency": "inconclusive: 89.1 µM [inhibitor, single point]"}, {"smiles": "COC(=O)c1cc(COC(=O)c2nc3nccc(C)n3n2)oc1C", "Potency": "inconclusive: 28.2 µM [inhibitor, partial curve, poor fit]"}, {"smiles": "c1cc(SSc2ccncc2)ccn1", "Potency": "active: 0.562 µM"}, {"smiles": "CN(C)c1ccc(/C=N/n2c(COc3ccccc3)n[nH]c2=S)cc1", "Potency": "active: 2.82 µM"}, {"smiles": "O=c1[nH]c(C2CCCN(S(=O)(=O)Cc3ccccc3)C2)nc2c1nnn2Cc1cccc(Cl)c1", "note": "(stereo not given)", "Potency": "inconclusive: 0.501 µM [inhibitor, full curve, poor fit]"}, {"smiles": "CCCN1CCN(CCCNC(=O)Cn2c(-c3cccs3)cc3ccccc32)CC1", "Potency": "inactive"}, {"smiles": "Cc1ccc(C)c(-n2c(Cc3cc(=O)[nH]c(=O)[nH]3)nnc2SC(C)C)c1", "Potency": "active: 50.1 µM"}, {"smiles": "Cn1nc(-c2ccccc2F)c2cc(C(=O)N3CCN(c4ccc(F)cc4)CC3)sc21", "Potency": "inconclusive: 11.2 µM [inhibitor, partial curve]"}, {"smiles": "O=C1COc2ccc(C(=O)COC(=O)c3ccccc3[N+](=O)[O-])cc2N1", "activity, negative = inhibition": "inconclusive: -68.4% [inhibitor] [at 2.33 µM]"}, {"smiles": "Cc1nnc2c(N3CCN(CCO)CC3)nc3ccccc3n12", "Potency": "inactive"}, {"smiles": "Cc1ccc(S(=O)(=O)NC(=O)c2cc(C)n(CCCn3ccnc3)c2C)cc1", "Potency": "inconclusive: 89.1 µM [inhibitor, single point]"}, {"smiles": "COC(=O)C1=C(C)NC(=O)NC1c1ccc(OC(=O)c2ccco2)cc1", "note": "(stereo not given)", "activity, negative = inhibition": "inactive: 10.7% [at 12.7 µM]"}]}]}
